Measurements published in PubChem BioAssay (NCI).
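Interpolation was linear, between the two tested concentrations surrounding the appropriate level; five concentrations were tested over 48 hours in 96-well plates. GI50 = concentration required for 50% inhibition of growth. TGI: concentration producing complete growth inhibition.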

Tested on: NCI-H322M lung
Assay: NCI tumour cell line growth inhibition, 48 h

| Structure (SMILES) | TGI [µM] | GI50 [µM] |
| --- | --- | --- |
| CCOP(=O)(OCC)/C(C#N)=C/c1ccco1 | > 100 | – |
| C[C@]12CC[C@@H]3c4ccc(O)cc4CC[C@H]3[C@@H]1CC[C@@H]2NS(=O)(=O)Cc1ccc(Cl)cc1 | 16.3 | 4.08 |
| c1ccc(CCN(Cc2nc3ccccc3[nH]2)Cc2nc3ccccc3[nH]2)cc1 | 49 | – |
| Cc1ccc2c(N)c(C(=O)N[C@H]3CCc4cc(N5CC6CCC(C5)N6)ccc4C3)sc2n1 | 2.21 | 0.386 |
| O=C(NOCC1CC1)c1ccc(F)c(F)c1Nc1ccc(I)cc1Cl | 10.7 | 0.875 |
| CC1(C)C(=O)N=C(N)N1C(=O)OCc1ccccc1 | > 100 | – |
| CN(c1ccccc1)C(c1ccccc1)C(O)c1ccccc1 (stereo unspecified) | 35.7 | – |
| CC1(C)N=C(N)N=C(N)N1c1cc(Cl)ccc1Cl | > 100 | > 100 |
| O=C(/C=C/c1ccc(O)cc1)NCCc1ccc(O)cc1 | > 12.5 | – |
| O=C1CCC2SC1CCC2=O | > 100 | – |
| CCC(=O)COc1ccc(NC(NC(=O)C(C(F)(F)F)C(F)(F)F)(C(F)(F)F)C(F)(F)F)cc1 | > 100 | – |
| CN(C)CCCNC(=O)c1cc(NC(=O)c2cc(NC(=O)c3cc(NC(=O)CCc4c[nH]c5ccccc45)cn3C)cn2C)cn1C | > 100 | 31.1 |
| COC1OC(CO)C(O)C(OC(=O)c2cc(O)c(O)c(O)c2)C1OC(=O)c1cc(O)c(O)c(O)c1 (stereo unspecified) | > 100 | – |
| OCCCCC#Cc1ccccc1C#Cc1ccccc1C(F)(F)F | 26.5 | 12.6 |
| O=[N+]([O-])/C=C/c1c[nH]c2ccccc12 | 30.2 | 16.3 |
| CC(C(=O)Oc1ccc2ccccc2c1-c1c(O)ccc2ccccc12)c1ccccc1 (stereo unspecified) | 29.6 | – |
| CC(=O)OCC1OC(O[C@@H]2c3c(O)c4c(c(O)c3C3=C(NN(c5ccc([N+](=O)[O-])cc5[N+](=O)[O-])[Se]3=O)[C@@]2(C)O)C(=O)c2ccccc2C4=O)C(OC(C)=O)C(OC(C)=O)C1OC(C)=O (stereo partly specified) | 1.36 | – |
| N#C/C=C1\C=CC(O)C(O)C1OC1OC(CO)C(O)C(O)C1O (stereo unspecified) | > 100 | – |
| O=C1c2ccccc2-c2c1c1ccccc1c(=O)n2CCNCCNCCn1c2c(c3ccccc3c1=O)C(=O)c1ccccc1-2 | 17.7 | 1.13 |
| S=C1N(c2ccc(Cl)cc2)C2=C(N=Nc3ccccc3)C(=Nc3ccccc3S2)N1c1ccccn1 | 26.5 | – |
| Fc1ccc(-c2ccc(-c3nnc(-c4cc(F)c(Cl)cc4Cl)o3)o2)cc1Cl | > 100 | 30.9 |
| CCOC(=O)CC1=CSC2=NCCN12 | > 100 | – |
| CC(NNC(=S)N1CCCCCC1)c1ccc2ccccc2n1 (stereo unspecified) | > 54.1 | 1.46 |

| Structure (SMILES) | TGI [µM] | GI50 [µM] |
| --- | --- | --- |
| Cc1ccc2c(=O)c3cccc(CC(=O)O)c3oc2c1C | > 100 | > 100 |
| C/C=C(/C)C(=O)O[C@H]1C(C)=C[C@]23C(=O)[C@@H](C=C(COC(C)=O)[C@@H](O)[C@]12O)[C@H]1[C@@H](C[C@H]3C)[C@@]1(C)OC(=O)/C(C)=C\C | 6.51 | – |
| COC(=N)C12C(N)=NC(OC)(OC)C1(C#N)C21C(=O)N(c2ccccc2)N=C1C (stereo unspecified) | > 100 | – |
| COC(=O)C1=CC[C@@H]2C(C(=O)O)=CO[C@@H](OC3OC(CO)C(O)C(O)C3O)[C@H]12 (stereo partly specified) | > 171 | – |
| CCOC(CN=c1nc(N(C)C)ss1)OCC | > 100 | – |
| CCOC(=O)C(C)c1cc(C2(C)OCCO2)c(C)o1 (stereo unspecified) | > 100 | – |
| Nc1ccccc1C#C/C=C\C#Cc1ccc(Cl)cc1Cl | 28.9 | 10.4 |
| Cc1cc2c(s1)C(=O)c1sccc1C2=O | 3.23 | – |
| O=S(=O)(c1ccc(I)cc1)N(c1ccccc1)S(=O)(=O)C(F)(F)C(F)(F)C(F)(F)C(F)(F)F | 66.1 | – |
| CN(C)CCO/N=C1/C=C2CC[C@H]3[C@@H]4CC[C@H](O)[C@@]4(C)CC[C@@H]3[C@@]2(C)CC1 | 48.3 | – |
| O=c1cc(-c2ccccc2)nc2n1CCN2Cc1ccccc1 | > 100 | 39.8 |
| COc1cc(/C=C/C(=O)c2ccc(Cl)cc2)ccc1OS(=O)(=O)c1ccc(C)cc1 | > 100 | 90.5 |
| CCN(CC)CCOc1ccc(/C=C2\CC3C4CC=C5C[C@@H](N6CCCC6)CC[C@]5(C)C4CC[C@]3(C)[C@H]2O)cc1OC (stereo partly specified) | 39.8 | 10.6 |
| O=C1CCCC2=C1CC1=C(CCCC1=O)N2c1cccc2ccccc12 | > 100 | – |
| COc1ccc2ccc([Se]c3ccc4ccc(OC)cc4c3)cc2c1 | > 100 | – |
| COC(=O)[C@H](Cc1ccccc1)NC(=O)N1CCN(C(=O)N[C@@H](Cc2ccccc2)C(=O)OC)CCN(C(=O)N[C@@H](Cc2ccccc2)C(=O)OC)CC1 | > 100 | – |
| CS(=O)c1ccc(COP(N)(=O)N(CCCl)CCCl)cc1 (stereo unspecified) | > 100 | – |
| O=S1(=O)CCN(Cc2ccccc2)/C1=N\S(=O)(=O)c1ccc(Cl)cc1 | > 100 | – |
| O=C1OC(=O)C2C1C1(c3ccccc3)C(c3ccccc3)=C(c3ccccc3)C2(c2ccccc2)S1=O (stereo unspecified) | > 100 | > 100 |
| CC[N+](CC)(CC)CCCn1c2c(c3ccccc3c1=O)C(=O)c1ccccc1-2 | 1.12 | – |
| O=c1c2cccnc2nc2ccc3c[nH][nH]c3c12 | > 10 | – |
| COC(=O)c1c(CC#N)cccc1CC#N | > 100 | – |
